Hit rate of the full screen: of about 220,000 compounds, about 2,300 (1%) were called active. The inconclusive results got no clear call from the source; some entries with a clear call stand among them for comparison. The call rests on the fitted dose curve; in most records, active means well fitted inhibition curve with a large enough effect; inconclusive means small, poorly fitted or top-dose-only effect, or effect the other way; inactive means no such curve, though single readings can be large or run the other way. No potency is given beside an inconclusive call; the fits are too rough.
Each molecule was assayed against Neuropeptide S receptor (Homo sapiens) (UniProt Q6W5P4) (assay: qHTS Assay for Antagonists of the Neuropeptide S Receptor: cAMP Signal Transduction). Conditions: CHO-NPSR cells, cAMP TR-FRET, antagonist mode; series mostly up to 38.3 µM.
Sequence of UniProt Q6W5P4 (Q6W5P4 whole entry, looked up): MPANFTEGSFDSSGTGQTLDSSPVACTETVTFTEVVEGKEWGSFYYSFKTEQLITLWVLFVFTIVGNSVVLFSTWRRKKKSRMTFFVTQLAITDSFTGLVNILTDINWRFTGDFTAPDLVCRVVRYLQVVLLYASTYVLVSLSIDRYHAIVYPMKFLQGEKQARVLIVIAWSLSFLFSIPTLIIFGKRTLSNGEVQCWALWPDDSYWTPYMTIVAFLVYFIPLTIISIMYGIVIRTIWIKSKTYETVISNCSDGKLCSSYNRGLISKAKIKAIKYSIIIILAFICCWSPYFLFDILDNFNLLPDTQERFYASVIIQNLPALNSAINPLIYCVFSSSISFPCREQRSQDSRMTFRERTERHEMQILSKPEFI
For `CN1C(=O)CC(Sc2ccccc2C(=O)O)C1=O` (stereo unspecified), the Potency was “inactive”. In the case of `CCCC(Oc1ccc(Br)cc1)c1nc2c3cc(OC)c(OC)cc3nc(=S)n2[nH]1` (stereo unspecified), the Potency is reported as “inactive”. With `CCOC(=O)c1sc(Nc2ccc(C)cc2C)nc1C` the Potency was inconclusive [inhibitor, partial curve, poor fit]. With `N#Cc1sc2nc(-c3cccs3)cc(-c3ccccc3)c2c1N` the Potency was “inactive”. For `COc1ccccc1-c1cc(C(F)(F)F)nc(S(=O)(=O)CCCC(=O)Nc2cccnc2Cl)n1`, the Potency was inconclusive [inhibitor, single point]. `CCOC(=O)C(=CNc1ccc(-c2ccco2)c(Cl)c1)C(=O)OCC` was tested, and the Potency was inconclusive [inhibitor, single point]. In the case of `Cc1onc(-c2cccc(Cl)c2Cl)c1C(=O)O/N=C(\N)c1ccc([N+](=O)[O-])o1`, the Potency is reported as inconclusive [activator, partial curve]. For `O=C(OCC(=O)N1CCc2ccccc21)c1c2c(nc3ccccc13)CCCC2`, the Potency was inconclusive [inhibitor, single point]. `COc1ccc(/C=C/c2nc(N)nc(-c3ccccc3O)n2)cc1OC` was tested, and the Potency was “inactive”. For `Cc1sc(NC(=O)c2cccs2)nc1-c1ccccc1`, the Potency was inconclusive [inhibitor, single point]. For `CN(C)C(=O)N(CCCN1CCOCC1)Cc1cccc2ccccc12`, the Potency was inconclusive [activator, single point]. For `O=C(O)/C=C/C(=O)NC1CCCCC1`, the Potency was “inactive”. `COC(=O)C(Sc1nc(C)cc(C)c1C#N)c1ccccc1` (stereo unspecified) was tested, and the Potency was inconclusive [inhibitor, single point]. For `CC1=NNC(=O)/C1=C\c1cn(-c2ccccc2)nc1-c1ccccc1`, the Potency was active: 12.6 µM. In the case of `CC1(C)CC(=O)C2=C(C1)NC(SCC(=O)Nc1ccccc1)=C(C#N)C21CCCCC1`, the Potency is reported as inconclusive [inhibitor, single point]. With `O=[N+]([O-])c1cccc(-c2ccc(/C=N/NC(=S)Nc3cccc(F)c3)o2)c1` the Potency was “inactive”. With `Cc1cc(NC(=O)Nc2ccc(Cl)c(Cl)c2)n(-c2ccccc2)n1` the Potency was inconclusive [activator, single point]. `Cn1c(-c2cccc(OCc3ccccc3)c2)nc2c1c(=O)[nH]c(=O)n2Cc1ccccc1` was tested, and the Potency was inconclusive [inhibitor, single point]. With `COC(=O)c1c(C(=O)OC)c(-c2ccc(C)cc2)n2c1CS(=O)C2` (stereo unspecified) the Potency was inconclusive [inhibitor, single point]. For `O=C(Cc1cccs1)NCCSc1c(-c2ccc(Cl)cc2)[nH]c2ccccc12`, the Potency was active: 10 µM. With `Brc1cccc(C2CC(c3ccccc3)n3nnnc3N2)c1` (stereo unspecified) the Potency was inconclusive [inhibitor, full curve, poor fit]. `O=C(NCc1ccccc1)C1=C[C@H](c2csc3ccccc23)C[C@H](OCc2ccc(CO)cc2)O1` was tested, and the Potency was inconclusive [inhibitor, single point]. With `O=C(Cc1nc2ccccc2[nH]c1=O)c1ccc(Cl)cc1` the Potency was “inactive”. With `N#Cc1nc(-c2ccc(F)cc2)oc1NCCN1CCOCC1` the Potency was “inactive”. `N/C(=N\OC(=O)c1cccc([N+](=O)[O-])c1)c1ccccn1` was tested, and the Potency was “inactive”. `CNC(=S)NNC(=O)c1ccc2c(c1)OCO2` was tested, and the Potency was “inactive”. In the case of `COc1ccccc1NC(=O)c1cc2cc(Br)ccc2cc1O`, the Potency is reported as inconclusive [inhibitor, single point]. In the case of `CCOC(=O)c1ccccc1NC(=O)c1c(F)c(F)c(F)c(F)c1F`, the Potency is reported as inconclusive [inhibitor, partial curve]. For `O=C(N/N=C/c1cc(Cl)cc([N+](=O)[O-])c1O)NC12CC3CC(CC(C3)C1)C2`, the Potency was active: 10 µM. For `CC(C)C[C@H](NC(=O)c1[nH]cnc1C(=O)N[C@H](C)c1ccccc1)C(=O)OC(C)(C)C`, the Potency was inconclusive [activator, single point]. In the case of `CC12CNCC(C)(CN(C(c3ccccc3)c3ccccc3)C1)C2`, the Potency is reported as inconclusive [activator, single point]. In the case of `Cc1nc(N2CCN(S(=O)(=O)c3ccccc3)CC2)c2c3c(sc2n1)CC(C)CC3` (stereo unspecified), the Potency is reported as inconclusive [inhibitor, partial curve]. For `O=C(O)CC(C(=O)OCC1CCCO1)N1CCOCC1` (stereo unspecified), the Potency was inconclusive [inhibitor, single point]. For `CCOC(=O)N1CCN(Cc2nc3c(c(=O)n(C)c(=O)n3C)n2Cc2ccc(F)cc2)CC1`, the Potency was “inactive”. `COc1cc(NC(=O)c2ccc(COc3ccccc3Br)o2)cc(OC)c1OC` was tested, and the Potency was inconclusive [inhibitor, single point]. `CCCc1ccc(C2C3=C(CC(C)(C)CC3=O)NC3=C2C(=O)c2ccccc23)cc1` (stereo unspecified) was tested, and the Potency was inconclusive [inhibitor, partial curve, poor fit]. `COc1cccc(CC(NC(C)=O)C(=O)NC2CCN(c3nnnn3-c3ccccc3)CC2)c1` (stereo unspecified) was tested, and the Potency was “inactive”. `O=C(CCCCCn1c(=S)[nH]c2cc3c(cc2c1=O)OCO3)N1CCN(C2CCCCC2)CC1` was tested, and the Potency was inconclusive [inhibitor, partial curve]. With `COc1cc(OC)cc(-c2nnc(SCC(=O)N(C(C)C)C(C)C)o2)c1` the Potency was inconclusive [inhibitor, partial curve]. `Cc1ccc(SC[C@H](c2ccccc2)N2CCN(CC(C)C)CCC2=O)cc1` was tested, and the Potency was inconclusive [inhibitor, single point]. `S=C(Nc1ccc2cn[nH]c2c1)Nc1ccc(Cl)cc1Cl` was tested, and the Potency was “inactive”. For `CC(C)OC(=O)CC(=O)c1sc2nc3c(cc2c1N)CN(C)CC3`, the Potency was inconclusive [inhibitor, partial curve]. In the case of `CCCC(=O)Nc1nnc(CCOC)s1`, the Potency is reported as “inactive”. With `CCCNC(=O)NC(=O)COC(=O)c1ccc(OC)c(S(=O)(=O)N2CCCc3ccccc32)c1` the Potency was inconclusive [inhibitor, single point]. For `CC(O)CNc1nc2sc3c(c2c(=O)n1Cc1ccco1)CCCCC3` (stereo unspecified), the Potency was inconclusive [activator, partial curve]. In the case of `CS(=O)(=O)N1CCc2cc(-c3csc(NC(=O)Cc4cccs4)n3)ccc21`, the Potency is reported as inconclusive [inhibitor, partial curve]. For `CCOC(=O)COc1c(-c2ccc(OC)cc2)oc2ccccc2c1=O`, the Potency was “inactive”. `COc1ccc(C(=O)CSc2nnc(COc3ccccc3)n2Cc2ccco2)cc1` was tested, and the Potency was inconclusive [inhibitor, partial curve, poor fit]. For `COC(=O)c1ccc(CSc2ncnc3c2oc2ccccc23)o1`, the Potency was inconclusive [inhibitor, single point]. In the case of `CC(C)c1nnc(SCC(=O)NCc2ccc3c(c2)OCO3)n1C`, the Potency is reported as “inactive”. With `CCCC(=O)N(C1CC(C)C(C#N)(C#N)C1(C#N)C#N)N(C)C` (stereo unspecified) the Potency was “inactive”. For `O=C(Nc1nc(NC(=O)c2ccco2)n(-c2ccccc2)n1)c1ccccc1`, the Potency was inconclusive [inhibitor, single point]. For `C/C=C/C=C/C(=O)N1CC[C@]23c4ccccc4N[C@H]4N(C)c5cccc6c5[C@]42CCN([C@H]6C2OC2(C)C)[C@H]13` (stereo partly specified), the Potency was “inactive”. `c1cnc2ccc(C(c3nnnn3C3CCCCC3)N3CCCCC3)cc2c1` (stereo unspecified) was tested, and the Potency was “inactive”. In the case of `N#C/C(=N\Nc1cccc(C(F)(F)F)c1)C(=O)c1csc(-c2cccnc2)n1`, the Potency is reported as active: 10 µM. `Cc1cc2ncn(/N=C/c3ccc(-c4ccccc4)o3)c2cc1C` was tested, and the Potency was inconclusive [inhibitor, single point]. In the case of `COc1ccc(Cl)cc1NC(=S)NCCc1c[nH]c2ccccc12`, the Potency is reported as inconclusive [inhibitor, single point]. With `O/N=C1/CCSc2ccccc21` the Potency was inconclusive [inhibitor, single point]. With `CS(=O)(=O)N(CC(=O)Nc1ccccc1Sc1ccccc1)c1ccc(F)cc1` the Potency was inconclusive [inhibitor, single point]. `CC1=NN(/C(=N\c2nnc(C)s2)Nc2ccccc2)[C@H](c2cccc3ccccc23)S1` was tested, and the Potency was inconclusive [inhibitor, single point]. In the case of `CCOc1ccc(-c2nnc(-c3cccnc3)o2)cc1OCC`, the Potency is reported as inconclusive [inhibitor, partial curve]. For `CNC(=S)NNC(=O)c1ccc(=O)n(Cc2ccc(Cl)cc2Cl)c1`, the Potency was “inactive”. In the case of `CCSc1nnc(NC(=O)c2ccc3ccccc3n2)s1`, the Potency is reported as active: 7.94 µM. With `CCOc1ccc(CNC(=O)C2CC(=O)N(C3CCCC3)C2)cc1OC` (stereo unspecified) the Potency was inconclusive [inhibitor, single point]. `CC1Cc2ccccc2N1C(=O)CN1C(=O)CN(C)C(=O)c2ccccc21` (stereo unspecified) was tested, and the Potency was inconclusive [inhibitor, partial curve]. For `Cc1noc(C)c1COC(=O)c1cc(C)n(-c2ccccc2)c1C`, the Potency was inconclusive [inhibitor, single point]. For `CC1=C(CO)C(=O)OC([C@@H](C)C2CC[C@H]3C4C[C@H]5O[C@]56[C@@H](O)C=CC(=O)[C@]6(C)C4CC[C@]23C)C1` (stereo partly specified), the Potency was active: 5.01 µM. With `O=C(CSc1nnnn1C1CCCCC1)Nc1ccc(F)cc1` the Potency was “inactive”. In the case of `COc1cc2[nH]c(=O)n(C3CCCCC3)c(=O)c2cc1OC`, the Potency is reported as “inactive”. For `CC1=NN(c2cccc(Cl)c2)C(=O)C12CC(C)=C(C)CS2` (stereo unspecified), the Potency was inconclusive [inhibitor, single point]. In the case of `CCN(CCNC(=O)C1CCN(Cc2nc(-c3ccc(Cl)cc3)oc2C)CC1)c1ccccc1`, the Potency is reported as inconclusive [inhibitor, single point].

From PubChem BioAssay AID1461 (National Center for Advancing Translational Sciences (NCATS), 2008)
Further: nearly all actives have a fitted effect of over 50% in size.
Potency means the concentration at half of the fitted maximal effect; tags describe the fitted curve by direction and shape.
